This is an account of results in PubChem BioAssay (NCI).

Structures are written as SMILES.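 96-well plates; 48 h exposure; 5 concentrations. Endpoints by linear interpolation between flanking doses. Not reached: highest tested concentration assigned. Here, GI50 denotes the concentration required for 50% inhibition of growth. TGI: concentration producing complete growth inhibition.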

For the test, the system named is NCI-H322M lung. Put plainly: inhibition of tumour cell growth, NCI panel, 48 h.
For `Nc1nc(Cl)cc(NCC2(CO)CCC(OCc3ccccc3)C2)n1` (stereo unspecified), the TGI was determined as 74.2 µM.

In turn, `CC1(c2nc3cc(Cl)c(Cl)cc3[nH]2)CCC(C(=O)O)C(C)(C)O1` (stereo unspecified) showed a TGI of over 100 µM.

For `N#CC(C#N)=Cc1ccc(-c2ccc(-c3nc4ccccc4s3)cc2)s1`, the GI50 was 22.8 µM and the TGI came out at 62.4 µM.

For `CCOC(=O)C1=C(N)Oc2cc(OC)ccc2C1c1ccc(F)c(F)c1` (stereo unspecified), the GI50 is 6.27 µM and the TGI was 19.5 µM.

For `CC[C@]12C=CCN3CCC4(c5cc(N=Nc6ccc([N+](=O)[O-])cc6)c(OC)cc5N(C)[C@H]4[C@@](O)(C(=O)OC)[C@@H]1OC(C)=O)[C@@H]32` (stereo partly specified), the TGI is 67.3 µM.

The compound `CCC(/C=C/c1ccccc1)=N\N=C(\C=C\c1ccccc1)CC` showed a TGI of over 100 µM.

`CCNC(=O)Cc1nc2c(=O)[nH]cnc2n1C1OC(CO)C(O)C1O` (stereo unspecified): the TGI is over 100 µM.

Take `O=C1C(c2c(O)[nH]c3ccc(S(=O)(=O)N(CCO)CCO)cc23)=Nc2ccccc21`: the TGI was over 100 µM.

Consider `COC(=O)c1cc(/C=C2\Cc3cc4c(cc3C2=O)CCC4)cc2c1CCC2`, for which the TGI is over 100 µM.

Take `CCNCCNc1cc(C2CCCC2)c(C#N)c2nc3ccccc3n12`: the GI50 is 3.2 µM and the TGI was 15 µM.

The compound `Clc1ccc(CCn2cncn2)c(Cl)c1` came in with a TGI of over 100 µM.

As for `CN(C)N1C(=O)CC2(CCN(CCCC(=O)c3ccc(F)cc3)CC2)C1=O`, the TGI was over 100 µM.

`CC(C)[C@H](NC(=O)[C@@H](O)[C@H](N)Cc1ccccc1)C(=O)N[C@@H](Cc1ccccc1)C(=O)O` displayed a TGI of over 100 µM.

In the case of `Cc1cc(Cl)ccc1Nc1nc(C(F)(F)F)ccc1C(=O)N/N=C/c1ccc(F)cc1`, the GI50 is 1.16 µM and the TGI is 7.35 µM.

Turning to `Cc1ccc2cccc(OC(=O)c3cc4c(cc3Cl)Sc3nccn3S4(=O)=O)c2n1`, the TGI stood at 27.4 µM.

In turn, `Clc1cccc(Cl)c1C1SCc2nc3ncccc3n21` (stereo unspecified) showed a TGI of over 100 µM.

The compound `CC(=O)OCC1OC(OC2CC3C(C)(C)C(=O)CC[C@]3(C)C3CC[C@]45C[C@]4(CCC5[C@@H](C)CC(O)C(O)C(C)(C)O)[C@]23C)C(O)C(O)C1O` (stereo partly specified) showed a TGI of 29.7 µM.

In turn, `O=c1[nH][nH]c(=S)c(=O)[nH]1` had a TGI of over 100 µM.

Regarding `Cc1ccc(S(=O)(=O)N/N=C2/CC[C@H](C(C)(C)C)C[C@@H]2C)cc1`, the TGI was 34.9 µM.

`O=C(CCc1cc(-c2ccco2)n(-c2ccc([N+](=O)[O-])cc2[N+](=O)[O-])n1)Nc1ccccc1` displayed a TGI of over 100 µM.

For `CCC1=C[C@H]2CN(CCc3c([nH]c4ccccc34)[C@@](C(=O)OC)(c3cc4c(cc3OC)N(C)[C@H]3[C@@](O)(C(=O)OC)[C@H](OC(C)=O)[C@]5(CC)[C@@H]6C[C@@H]6CN6CC[C@]43[C@@H]65)C2)C1`, the GI50 is 0.0952 µM and the TGI was determined as 10.2 µM.

For the compound `CCOC(=O)C1C(=O)CC(C)(O)C(C(=O)OCC)C1c1ccc(OC)cc1` (stereo unspecified), the TGI was over 100 µM.

As to `O=C(Nc1cccc(-n2cc(-c3ccncc3)c(-c3ccc(O)c(Cl)c3)n2)c1)Nc1ccc(Cl)c(C(F)(F)F)c1`, the GI50 was 2.73 µM and the TGI is 12.2 µM.

`CNC(=S)N/N=C(/C)CCC/C(C)=N/NC(=S)NC` yielded a TGI of over 100 µM.

`COc1cc(C2SC(N)=Nc3c2c(C)nn3C(=O)Cc2ccccc2)ccc1O` (stereo unspecified) displayed a TGI of over 100 µM.

Regarding `[O-][n+]1onc2c1-c1nonc1CC2`, the TGI stood at 93 µM.

With `C(#Cc1ccccc1C#Cc1ccccn1)c1ccc(OCCCCCCOc2ccc(C#Cc3ccccc3C#Cc3ccccn3)cc2)cc1`, the GI50 was 6.61 µM and the TGI worked out at 16.7 µM.

As for `Cc1ccc2nc(Cl)c(/C=N/N3C(=O)/C(=C/Cc4ccco4)N=C3c3ccccc3)cc2c1`, the TGI was over 100 µM.

Turning to `COc1ccc2c(c1)N(CCO)C1=C(C(=O)OC1)C2c1cccc(Br)c1` (stereo unspecified), the GI50 was 0.55 µM and the TGI is over 100 µM.

In the case of `Cc1cccc(C(O)c2ccccn2)c1O` (stereo unspecified), the TGI is over 100 µM.

`CC1(C)OC([C@H](O)CO)C([C@H]2NCCS2)O1` (stereo partly specified) yielded a TGI of over 100 µM.

`O=C(NC1CCN(Cc2ccccc2)CC1)c1ccccc1I` registered a TGI of over 100 µM.

On to `NC(CCCNCc1ccccc1O)C(=O)O` (stereo unspecified), for which the TGI is over 100 µM.

`O=C1/C(=C/c2ccc(O)cc2)CCc2ccccc21` gave a TGI of over 96.2 µM.

Consider `COc1cc2c3c(n(CCCN4CCOCC4)c(=O)c2cc1OC)-c1cc2c(cc1C3=O)OCO2`, for which the GI50 was 19.8 µM and the TGI is over 94.1 µM.

For the compound `O=C(O)c1cn(C2CC2)c2cc(N3CCN(C(=O)Nc4nc(-c5ccc(Cl)cc5)cs4)CC3)c(F)cc2c1=O`, the GI50 is 1.38 µM and the TGI was over 100 µM.

For `O=C1/C(=c2\c3ccccc3n3c(=O)c4ccccc4nc23)Nc2ccccc21`, the TGI is over 100 µM.

`[O-][N+]1=C(c2ccccc2)COc2ccccc21` came in with a TGI of over 100 µM.

`O=C1C=Cc2c(I)sc(I)c21` displayed a TGI of over 100 µM.

The compound `C=CCn1c(=S)sc2c(=O)[nH]cnc21` came in with a TGI of over 100 µM.

Take `O=C1C=CC(=O)N1CCCCCCCCCCN1C(=O)C=CC1=O`: the GI50 was 31.9 µM and the TGI is over 100 µM.

`C=C1C(=O)O[C@H]2[C@H]3O[C@@H](C[C@@H]12)[C@](C)(O)CCCC(C)=CCC[C@H]3C` registered a TGI of 50.4 µM.

`CC(C)C(/C=C/c1ccc(Cl)cc1)=N\NC(=S)NN`: the TGI was over 100 µM.

Turning to `CCOCC[P+](c1ccccc1)(c1ccccc1)c1ccccc1`, the GI50 was 28.6 µM and the TGI is over 100 µM.

On to `Cc1ccc(S(=O)(=O)N2C/C(=C\c3cc(F)cc(F)c3)C(=O)/C(=C/c3cc(F)cc(F)c3)C2)cc1`, for which the GI50 is 3.28 µM and the TGI turned out to be 12.2 µM.

Consider `CC[C@@H]1C[C@@H](O)[C@@H]2[C@H](O)[C@H](O)CN2C1`, for which the TGI was over 100 µM.

As to `O=C1NCN(c2ccccc2)C12CCN(CCCSc1ccc(F)cc1)CC2`, the TGI is over 100 µM.

For the compound `N.N.N.N.O=S(=O)([O-])[O-].[Co+3].[OH3+].[OH3+]`, the TGI was over 100 µM.

Compound `CCCN1CN(C(C(=O)N[C@@H]2C(=O)N3C(C(=O)O)=C(C)CSC23)c2ccccc2)CSC1=S` (stereo partly specified) gave a TGI of over 100 µM.

For `CCC1CCN=C(Cn2cc(C)c(=O)[nH]c2=O)N1` (stereo unspecified), the TGI is over 100 µM.

Take `OCCCNC(=S)Nc1ccc(-c2nc3ccccc3s2)cc1`: the GI50 is 24.9 µM and the TGI is over 100 µM.

Take `Cn1c2ccccc2c(=S)c2cc(NC(=O)CCCCC(=O)Nc3ccc4c(c3)c(=S)c3ccccc3n4C)ccc21`: the TGI was over 100 µM.

In the case of `Cc1c(C)c(C)c(CSC(=N)N)c(C)c1C`, the TGI amounted to 28.8 µM.

On to `COc1cc([C@@H]2c3cc4c(cc3[C@@H](NC(=O)c3ccc([N+](=O)[O-])cc3)C3COC(=O)[C@@H]32)OCO4)cc(OC)c1O` (stereo partly specified), for which the TGI turned out to be 85.9 µM.

For `CC(=O)O[C@@H]1CC(=O)O[C@@H]2C[C@@H](CC/C(Cl)=C/C/C=C\1C)O[C@@H]2CO`, the TGI was over 5.12 µM.

Take `COc1ccc2c(c1)c(=O)oc1cc(OC/C(=N\O)c3ccc(F)cc3)ccc12`: the GI50 was 21 µM and the TGI came out at 54.8 µM.

As for `Cc1ccc(OCCn2cc(Nc3ccccc3)c(=O)[nH]c2=O)cc1`, the TGI was over 100 µM.

For `C/C(CC(=O)Nc1ccc([N+](=O)[O-])cc1)=N/N=C(N)N`, the TGI was over 100 µM.

For the compound `O=C1[C@H](c2ccccc2)C2c3ccccc3CCN12` (stereo partly specified), the GI50 is over 100 µM and the TGI is over 100 µM.

In turn, `O=C(O)C#Cc1ccc([N+](=O)[O-])cc1` had a TGI of over 100 µM.
